# Laboratory results from the supplement of paper PMC4967469.
# A lower IC50 marks a more sensitive line; where the fit passes the top or lowest dose, that dose stands as a limit. AUC is the area under the same curve over the 256-fold range up to the top dose, as a fraction; it is 1 without any effect and falls as sensitivity rises. Where the top dose is marked as inferred, it was derived from the fitted curves, not read from the paper. Where an entry number is given, a second screen of the drug exists; the two often differ.
# Compound: NC(=O)[C@@H](CCC(F)(F)F)N(Cc1ccc(-c2ncon2)cc1F)S(=O)(=O)c1ccc(Cl)cc1 [BMS-708163]
# Test: Viability of human cancer cell lines after 72 h of drug (GDSC screen)
# Settings: screen: GDSC drug entry 205; top dose inferred
# Experimental: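 Human cancer cell lines in 384-well plates, medium with 10% serum, drug for 72 h over a 256-fold dose range (nine 2-fold or five 4-fold steps up to the top dose). Adherent lines were fixed and stained with the nucleic acid dye Syto60, suspension lines read with resazurin; signal relative to control wells, capped at 0 and 100%. One two-parameter sigmoid per drug and line, fitted in a mixed model over all curves with the slope shared within a line.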
Cell Line,AUC,IC50 [µM]
"8-MG-BA (glioma, adherent, top dose 10.24 µM)",0.987,> 10.2
"22RV1 (prostate, adherent, top dose 10.24 µM)",0.979,> 10.2
"42-MG-BA (glioma, adherent, top dose 10.24 µM)",0.985,> 10.2
"201T (lung adenocarcinoma, adherent, top dose 10.24 µM)",0.979,> 10.2
"451Lu (melanoma, adherent, top dose 10.24 µM)",0.989,> 10.2
"639-V (bladder, adherent, top dose 10.24 µM)",0.991,> 10.2
"647-V (bladder, adherent, top dose 10.24 µM)",0.987,> 10.2
"697 (lymphoblastic leukaemia, suspension, top dose 10.24 µM)",0.978,> 10.2
"769-P (kidney, adherent, top dose 10.24 µM)",0.98,> 10.2
"786-0 (kidney, adherent, top dose 10.24 µM)",0.982,> 10.2
"5637 (bladder, adherent, top dose 10.24 µM)",0.989,> 10.2
"8305C (thyroid, adherent, top dose 10.24 µM)",0.976,> 10.2
"8505C (thyroid, adherent, top dose 10.24 µM)",0.983,> 10.2
"23132-87 (stomach, adherent, top dose 10.24 µM)",0.986,> 10.2
"A3-KAW (B-cell lymphoma, suspension, top dose 10.24 µM)",0.989,> 10.2
"A4-Fuk (B-cell lymphoma, suspension, top dose 10.24 µM)",0.986,> 10.2
"A101D (melanoma, adherent, top dose 10.24 µM)",0.981,> 10.2
"A172 (glioma, adherent, top dose 10.24 µM)",0.985,> 10.2
"A204 (rhabdomyosarcoma, adherent, top dose 10.24 µM)",0.978,> 10.2
"A253 (head and neck, adherent, top dose 10.24 µM)",0.988,> 10.2
"A375 (melanoma, adherent, top dose 10.24 µM)",0.988,> 10.2
"A388 (skin, adherent, top dose 10.24 µM)",0.984,> 10.2
"A427 (non-small cell lung carcinoma, adherent, top dose 10.24 µM)",0.982,> 10.2
"A431 (skin, adherent, top dose 10.24 µM)",0.987,> 10.2
"A498 (kidney, adherent, top dose 10.24 µM)",0.978,> 10.2
"A673 (rhabdomyosarcoma, adherent, top dose 10.24 µM)",0.984,> 10.2

Cell Line,AUC,IC50 [µM]
"A704 (kidney, adherent, top dose 10.24 µM)",0.989,> 10.2
"A2058 (melanoma, adherent, top dose 10.24 µM)",0.99,> 10.2
"A2780 (ovary, semi-adherent, top dose 10.24 µM)",0.968,> 10.2
"ABC-1 (lung adenocarcinoma, adherent, top dose 10.24 µM)",0.983,> 10.2
"ACHN (kidney, adherent, top dose 10.24 µM)",0.983,> 10.2
"AGS (stomach, adherent, top dose 10.24 µM)",0.988,> 10.2
"ALL-PO (lymphoblastic leukaemia, suspension, top dose 10.24 µM)",0.964,> 10.2
"ALL-SIL (T-cell leukaemia, suspension, top dose 2.56 µM)",0.989,> 2.56
"AM-38 (glioma, semi-adherent, top dose 10.24 µM)",0.988,> 10.2
"AMO-1 (haematopoietic neoplasm, suspension, top dose 10.24 µM)",0.962,> 10.2
"AN3-CA (endometrium, adherent, top dose 10.24 µM)",0.985,> 10.2
"ARH-77 (myeloma, suspension, top dose 10.24 µM)",0.984,> 10.2
"ASH-3 (thyroid, adherent, top dose 10.24 µM)",0.987,> 10.2
"ATN-1 (T-cell lymphoblastic leukaemia, suspension, top dose 2.56 µM)",0.982,> 2.56
"AU565 (breast, adherent, top dose 10.24 µM)",0.984,> 10.2
"AsPC-1 (pancreas, adherent, top dose 10.24 µM)",0.963,> 10.2
"BB30-HNC (head and neck, adherent, top dose 10.24 µM)",0.979,> 10.2
"BB49-HNC (head and neck, adherent, top dose 10.24 µM)",0.972,> 10.2
"BB65-RCC (kidney, adherent, top dose 10.24 µM)",0.983,> 10.2
"BC-1 (B-cell lymphoma, suspension, top dose 10.24 µM)",0.982,> 10.2
"BC-3 (B-cell lymphoma, suspension, top dose 10.24 µM)",0.989,> 10.2
"BCPAP (thyroid, adherent, top dose 10.24 µM)",0.987,> 10.2
"BE2-M17 (neuroblastoma, adherent, top dose 10.24 µM)",0.987,> 10.2
"BE-13 (lymphoblastic leukaemia, suspension, top dose 10.24 µM)",0.987,> 10.2
"BEN (non-small cell lung carcinoma, adherent, top dose 10.24 µM)",0.984,> 10.2
"BFTC-905 (bladder, adherent, top dose 10.24 µM)",0.99,> 10.2

Cell Line,AUC,IC50 [µM]
"BFTC-909 (kidney, adherent, top dose 10.24 µM)",0.987,> 10.2
"BHT-101 (thyroid, adherent, top dose 10.24 µM)",0.984,> 10.2
"BHY (head and neck, adherent, top dose 10.24 µM)",0.987,> 10.2
"BICR10 (head and neck, adherent, top dose 10.24 µM)",0.985,> 10.2
"BICR22 (head and neck, adherent, top dose 10.24 µM)",0.983,> 10.2
"BICR31 (head and neck, adherent, top dose 10.24 µM)",0.988,> 10.2
"BICR78 (head and neck, adherent, top dose 10.24 µM)",0.983,> 10.2
"BL-41 (Burkitt lymphoma, suspension, top dose 10.24 µM)",0.987,> 10.2
"BPH-1 (prostate, adherent, top dose 10.24 µM)",0.971,> 10.2
"BT-20 (breast, adherent, top dose 10.24 µM)",0.95,> 10.2
"BT-474 (breast, adherent, top dose 10.24 µM)",0.986,> 10.2
"BT-483 (breast, adherent, top dose 2.56 µM)",0.967,> 2.56
"BV-173 (chronic myeloid leukaemia, suspension, top dose 10.24 µM)",0.989,> 10.2
"Becker (glioma, adherent, top dose 10.24 µM)",0.982,> 10.2
"BxPC-3 (pancreas, adherent, top dose 10.24 µM)",0.984,> 10.2
"C2BBe1 (large intestine, adherent, top dose 10.24 µM)",0.961,> 10.2
"C3A (liver, adherent, top dose 10.24 µM)",0.987,> 10.2
"C32 (melanoma, adherent, top dose 10.24 µM)",0.987,> 10.2
"C-4-I (cervix, adherent, top dose 10.24 µM)",0.984,> 10.2
"C-33-A (cervix, adherent, top dose 10.24 µM)",0.984,> 10.2
"CA46 (Burkitt lymphoma, suspension, top dose 10.24 µM)",0.983,> 10.2
"CADO-ES1 (Ewing sarcoma, suspension, top dose 10.24 µM)",0.98,> 10.2
"CAKI-1 (kidney, adherent, top dose 10.24 µM)",0.966,> 10.2
"CAL-12T (non-small cell lung carcinoma, adherent, top dose 10.24 µM)",0.983,> 10.2
"CAL-27 (head and neck, adherent, top dose 10.24 µM)",0.982,> 10.2

# Same assay, conditions: top dose 5 µM; screen: GDSC drug entry 1072; top dose inferred
Cell Line,AUC,IC50 [µM]
"A549 (lung adenocarcinoma, adherent)",0.949,> 5
"BALL-1 (B-cell leukaemia, suspension)",0.997,> 5
"BT-549 (breast, adherent)",0.976,> 5
"CADO-ES1 (Ewing sarcoma, suspension)",0.986,> 5
